Tests used:
CTLA-4 (BMS, Orencia) = CTLA-4 (BMS, Orencia) (human, UniProt P16410 38-152); experiment: cell-based or functional assay
[1] = target: T1, CTLA-4 expressed on cells (CHO P4 cells with OX40 and CTLA4); HEK-CTLA4 cells; ADCC target cells; Jurkat … (Homo sapiens (Human), UniProt P16410 38-152); experiment: cell-based or functional assay
[2] = target: T1, CTLA-4 expressed on cells (CHO P4 cells …); experiment: flow cytometry on CHO P4 cells expressing both OX40 and CTLA-4, detection PE-conjugated anti-human IgG; the cells carry both targets of the bispecific

Sequence of CTLA-4 (BMS, Orencia) (P16410 38-152 limits assumed): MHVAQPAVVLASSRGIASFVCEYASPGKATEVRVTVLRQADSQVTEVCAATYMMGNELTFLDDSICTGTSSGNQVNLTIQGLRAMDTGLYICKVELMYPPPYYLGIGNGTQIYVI

B1: bispecific molecule 1514/1581 (bispecific antibody, human IgG1, kappa)
heavy: EVQLLESGGGLVQPGGSLRLSCAASGFTFGYYYMSWVRQAPGKGLEWVSGISSYGSYTYYADSVKGRFTISRDNSKNTLYLQMNSLRAEDTAVYYCARSGYSNWANSFDYWGQGTLVTVSS[sequence of human IgG1 constant region omitted]
light: DIQMTQSPSSLSASVGDRVTITCRASQSISSYLNWYQQKPGKAPKLLIYAASSLQSGVPSRFSGSGSGTDFTLTISSLQPEDFATYYCQQGDYTLFTFGQGTKLEIKRTVAAPSVFIFPPSDEQLKSGTASVVCLLNNFYPREAKVQWKVDNALQSGNSQESVTEQDSKDSTYSLSSTLTLSKADYEKHKVYACEVTHQGLSSPVTKSFNRGECSGGGGSGGGGSAPLKIQAYFNETADLPCQFANSQNLSLSELVVFWQDQENLVLNEVYLGKERFDSVDSKYMGRTSFDSDSWTLRLHNLQIKDKGRYQCIIHHKKPTGMINIHQMNSELSVLA
B1 was tested, and the “Mean IL-2 level (pg/ml) induced at 1.5 nM bispecific antibody or control” value (CTLA-4 (BMS, Orencia)) was 5110 pg/mL.

B2: bispecific OX40-CTLA-4 antibody 1166/1261 (bispecific antibody, human IgG1, kappa)
heavy: EVQLLESGGGLVQPGGSLRLSCAASGFTFGGYYMSWVRQAPGKGLEWVSAISGSGGSTYYADSVKGRFTISRDNSKNTLYLQMNSLRAEDTAVYYCARYDYASMDYWGQGTLVTVSS[sequence of human IgG1 constant region omitted]
light: DIQMTQSPSSLSASVGDRVTITCRASQSISSYLNWYQQKPGKAPKLLIYAASSLQSGVPSRFSGSGSGTDFTLTISSLQPEDFATYYCQQYYWYGLSTFGQGTKLEIKRTVAAPSVFIFPPSDEQLKSGTASVVCLLNNFYPREAKVQWKVDNALQSGNSQESVTEQDSKDSTYSLSSTLTLSKADYEKHKVYACEVTHQGLSSPVTKSFNRGECSGGGGSGGGGSAPLKIQAYFNETADLPCQFANSQNLSLSELVVFWQDQENLVLNEVYLGKERFDSVDSKYMGRTSFDSDSWTLRLHNLQIKDKGRYQCIIHHKKPTGMINIHQMNSELSVLA
For B2, the “Fold-induced ADCC (FcγRIIIa V158 Jurkat NFAT-luciferase reporter; target cells expressing both OX40 and CTLA4)” value [1] was roughly 123 fold, the “EC50 (read off the curve)” value [2] was roughly 0.02 µM and the “Mean IL-2 level (pg/ml) induced at 1.5 nM bispecific antibody or control” value (CTLA-4 (BMS, Orencia)) was 4290 pg/mL.

— patent publication US20200048358A1 (ALLIGATOR BIOSCIENCE, published 2020)
